The values that follow come from the RNAGym collection of RNA variant scans (doi:10.7554/elife.90254).

The source gives no read counts; variants with many changes may rest on few reads.

Sequences and labels used below:
B1: OR4K15 (parent)
chain: GUUAACGGUCAUAGGCCAUGGAAACUAGGAGCACCAUUUCGCUGCCAGUGAAGAAAUGAACAAAGAAAAUCUGGGCCAGGCAGGCAUCAAAAGAAAUAGUCUUGCGCUCAACCAGAAAGUCUGUAAUCAUUUUAAGGGUA

The variants in the series derive from B1. The series can be described thus: self-cleavage, relative activity (ratio to wild type); higher = more cleavage; in vitro, sequencing; the parent is a self-cleaving ribozyme.
A24U U122A U130G: the self-cleavage was determined as 1.65.

Take A24U A33G G123A: the self-cleavage worked out at 0.96.

Take U26C C35U U132C: the self-cleavage stood at 0.97.

Regarding A24G U43C C85U U102A U103C G106C U131C, the self-cleavage was found to be 0.

With A24G U38A A94G A98U, the self-cleavage is 2.17.

For the variant A24G G83U A90G A94G A96G U132C, the self-cleavage turned out to be 0.64.

As to A24G U102C U108C A110C, the self-cleavage amounted to 0.

Consider U26C A30G A78G A98G, for which the self-cleavage came to 0.12.

In the case of U26C A27G U108C A126G, the self-cleavage is 0.01.

Take C25U A55G U102C: the self-cleavage worked out at 1.8.

Turning to A24G C34U U87G, the self-cleavage came to 0.7.

Turning to A24G U39C A55G, the self-cleavage amounted to 0.86.

As to A24G U37C A55G A60G U87C A118U, the self-cleavage is 0.48.

Consider A24G G44A A59U U100C, for which the self-cleavage was 2.67.

With U26A A55U A118U, the self-cleavage was 0.52.

For A24G G31C A52G, the self-cleavage turned out to be 1.

With A24G U108C A126G, the self-cleavage was 0.01.

Consider A24U A60U U87C, for which the self-cleavage was found to be 1.69.

As for C25A A111G A140U, the self-cleavage was 0.

U26C A51G U70C A82G A114U: the self-cleavage was found to be 0.04.

Take C25U A36G C46U U102C G115U: the self-cleavage amounted to 0.12.

On to A24G U38C A59G, for which the self-cleavage came out at 0.91.

Take U26A A59G A62G A78G U124C: the self-cleavage worked out at 0.11.

Take A24G C32U U132C: the self-cleavage amounted to 0.41.

On to A24G U49C U87C U103C, for which the self-cleavage was found to be 0.32.

In the case of U26C U39C A47G A90G A91G A95G U120C, the self-cleavage came to 0.49.

In the case of A24G U37C U130C, the self-cleavage is 1.21.

With A24U A62U A89G, the self-cleavage is 1.25.

Consider A24G G58A A82U U130C, for which the self-cleavage stood at 0.14.

Turning to A24U U37C A67G A129U U130C, the self-cleavage was 0.76.

A24G U102C A118G: the self-cleavage is 1.44.

With A24G U108C A116U, the self-cleavage came to 0.

Turning to A24G U37C A56G, the self-cleavage came to 2.4.

As to U26C A54G U102A, the self-cleavage turned out to be 0.78.

As for U26A A69U C77A A86G, the self-cleavage was 0.75.

Take A24G U39C A67G A86G A92G U132C: the self-cleavage worked out at 1.25.

A24G U139C A140G: the self-cleavage amounted to 2.71.

On to A24U A91C A114G, for which the self-cleavage was 0.36.

As to A24U A56G A78C, the self-cleavage was 0.14.

Regarding A24U G74C A96G A117G U130C, the self-cleavage was determined as 0.1.

For U26C A69G A95G A110G, the self-cleavage was 0.17.

U26C A62G A67G U72A A90C A92G A117G: the self-cleavage turned out to be 0.12.

With A24U A110G A116G, the self-cleavage is 0.06.

Consider U26C A36G U100C, for which the self-cleavage is 2.28.

With A24U A60G A91G A92G U108A A126G, the self-cleavage worked out at 0.01.

Consider U26C A55G U103C, for which the self-cleavage stood at 0.38.

For the variant U26A U37C A66G, the self-cleavage came to 1.63.

Consider U26C A47U U130A A134U, for which the self-cleavage was 0.66.

With A24U C32U U57C U87C A117G, the self-cleavage was 0.28.

In the case of U26C A36G A55G, the self-cleavage is 1.38.

On to U26C A60G A134G, for which the self-cleavage stood at 0.83.

As for U26C C81U A96U U122C, the self-cleavage stood at 0.38.

Regarding A24G U49C A117G U127C, the self-cleavage is 0.99.

A24G U38A U49A U70C A118G: the self-cleavage is 1.09.

For A24U A36U A63G, the self-cleavage was 1.6.

With U26C A55G A114U U120C U122C, the self-cleavage is 0.01.

As to A24G G41C A82U U87A A111G, the self-cleavage amounted to 0.07.

Consider U26C A30G A60U, for which the self-cleavage is 1.42.

In the case of U26C A33G U37C A54U A63G A89G U100C U131C, the self-cleavage came out at 0.88.

Take A24G U87C C105U U120C: the self-cleavage was determined as 0.02.

Regarding U26A U38C U49C U72A, the self-cleavage worked out at 0.13.

A24G C45U A51G A140G: the self-cleavage was 0.75.

Take U26C G28A A33G A90G U130C: the self-cleavage was found to be 0.

For A24G U37C A67G U131C, the self-cleavage was found to be 2.2.

U26A C113A U120C: the self-cleavage is 0.01.

As to C25U A33G A59U U70C A86G U122C A129G, the self-cleavage is 0.09.

With A24U A30G U37C U38C U49C U72A A94G U132A, the self-cleavage worked out at 0.23.

U26A G79A A94G A110G: the self-cleavage is 0.04.

Turning to A24U U43C A116G, the self-cleavage was determined as 0.57.

For the variant A24G U37C A110G A135U, the self-cleavage was found to be 0.11.

Consider A24U A30U A59G U97G U122C, for which the self-cleavage is 0.83.

With A24G C46U A90U, the self-cleavage amounted to 1.47.

With U26C A67G A96U U108C, the self-cleavage came out at 0.04.

As for A24U U43C U57C A117G, the self-cleavage is 1.23.

Consider A24G G44A U100C C105G U131C, for which the self-cleavage came to 0.

Turning to U26C A36G U43C A86G A89G, the self-cleavage stood at 0.66.

Turning to U26C A62U U70C, the self-cleavage is 0.62.

In the case of A24G U38C A54C A118G, the self-cleavage was 1.73.

For A24G G93A U127C G137A, the self-cleavage came out at 1.02.

As for A24U A96G A135U, the self-cleavage was 1.41.

Regarding U26A A27G A51U, the self-cleavage stood at 1.16.

For the variant A24G U72G A96G, the self-cleavage turned out to be 0.42.

Turning to U26C A36G U87C, the self-cleavage was 1.72.

For the variant U26C A64G A135G, the self-cleavage came out at 1.42.
